# Laboratory results published in US12583836B2 (Anaxis Pharma Pty Ltd, priority 2020, dated 2026).
# What was measured:
# RIP1 = biological target: T1, RIP1 (Homo sapiens, UniProt Q13546); assay: KINOMEscan binding assay, RIP1; conditions: equilibrium dissociation constant, class symbols
# T1 construct: purchased DiscoverX (KINOMEscan service); host or cells: E. coli BL21-derived (T7 phage) or HEK293
# T1 sequence (Q13546 1-671): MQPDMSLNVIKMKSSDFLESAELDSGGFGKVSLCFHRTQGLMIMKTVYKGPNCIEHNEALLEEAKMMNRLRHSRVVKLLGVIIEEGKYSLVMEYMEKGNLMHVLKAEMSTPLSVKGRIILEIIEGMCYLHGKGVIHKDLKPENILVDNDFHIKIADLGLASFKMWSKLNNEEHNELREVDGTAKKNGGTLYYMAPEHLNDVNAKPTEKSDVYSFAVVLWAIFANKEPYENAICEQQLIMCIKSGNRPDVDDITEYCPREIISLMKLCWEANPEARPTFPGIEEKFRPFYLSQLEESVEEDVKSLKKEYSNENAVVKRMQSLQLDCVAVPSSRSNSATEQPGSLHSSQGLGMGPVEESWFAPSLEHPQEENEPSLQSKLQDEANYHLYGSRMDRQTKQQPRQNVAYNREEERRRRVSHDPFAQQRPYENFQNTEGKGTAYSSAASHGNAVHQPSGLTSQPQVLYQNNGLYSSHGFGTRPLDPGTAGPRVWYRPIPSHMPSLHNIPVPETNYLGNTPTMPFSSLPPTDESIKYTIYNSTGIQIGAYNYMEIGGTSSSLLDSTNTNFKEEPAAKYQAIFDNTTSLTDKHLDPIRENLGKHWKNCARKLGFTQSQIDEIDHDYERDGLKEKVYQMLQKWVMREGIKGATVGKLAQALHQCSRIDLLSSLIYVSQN
# MLKL (full length) = biological target: T2, MLKL (full length) (Homo sapiens, UniProt Q8NB16); assay: KINOMEscan binding assay, MLKL; conditions: equilibrium dissociation constant, class symbols
# T2 construct: purchased DiscoverX (KINOMEscan service); host or cells: E. coli BL21-derived (T7 phage) or HEK293
# T2 sequence (Q8NB16 1-471): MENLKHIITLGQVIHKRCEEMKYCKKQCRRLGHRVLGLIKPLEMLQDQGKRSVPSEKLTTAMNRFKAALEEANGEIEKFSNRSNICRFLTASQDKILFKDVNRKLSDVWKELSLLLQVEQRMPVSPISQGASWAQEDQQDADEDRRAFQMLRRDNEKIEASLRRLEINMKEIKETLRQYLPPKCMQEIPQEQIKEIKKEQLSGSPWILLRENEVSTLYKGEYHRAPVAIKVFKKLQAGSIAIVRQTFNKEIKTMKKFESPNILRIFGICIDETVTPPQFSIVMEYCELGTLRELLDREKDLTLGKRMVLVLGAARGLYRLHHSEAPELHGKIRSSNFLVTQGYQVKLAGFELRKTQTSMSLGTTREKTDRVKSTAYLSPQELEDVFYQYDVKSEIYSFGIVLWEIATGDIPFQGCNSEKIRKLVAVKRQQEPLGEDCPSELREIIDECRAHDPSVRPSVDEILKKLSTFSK
# From the text: The Hill Slope was set to −1.
smiles,measurement,setting,value
"NC(=O)c1c(-c2ccc(NS(=O)(=O)CC(F)(F)F)c(OCc3ccc(F)cc3)c2)n[nH]c1Nc1ccc(C(F)(F)F)nc1 [Compound 176, 3-(3-((4-fluorobenzyl)oxy)-4-((2,2,2-trifluoroethyl)sulfonamido)phenyl)-5-((6-(trifluoromethyl)pyridine-3-yl)amino)-1H-pyrazole-4-carboxamide]",Kd,RIP1,> 30 µM
same,Kd,MLKL (full length),< 0.01 µM
